# Results from the supplement of paper PMC4604168 (melanoma cell lines).
# Some of the results follow. Repeats are few or missing, and single values can be far off.
# Assays:
# Experiment in all cases: cell count relative to DMSO control; melanoma cells; higher = more viable cells
# Conditions in all cases: library dose: standard library concentration; 72 h
# SkMel28 = system: SkMel28
# SkMel2 = system: SkMel2
# SkMel30 = system: SkMel30
# SkMel5 = system: SkMel5
# UACC257 = system: UACC257
# UACC62 = system: UACC62
# WM115 = system: WM115
# WM1716 = system: WM1716
# WM1745 = system: WM1745
# WM3526 = system: WM3526
# 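Note: cells treated in 1,536-well plates, then fixed and DAPI-stained, with nuclei counted from automated high-throughput microscope images.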
SMILES,cell count (SkMel28) [%],cell count (SkMel2) [%],cell count (SkMel30) [%],cell count (SkMel5) [%],cell count (UACC257) [%],cell count (UACC62) [%],cell count (WM115) [%],cell count (WM1716) [%],cell count (WM1745) [%],cell count (WM3526) [%]
"Cn1cnc2c(F)c(Nc3ccc(Br)cc3Cl)c(C(=O)NOCCO)cc21 [selumetinib] + C[C@@H]1CCN(C(=O)CC#N)C[C@@H]1N(C)c1ncnc2[nH]ccc12 [CP690550] (first compound 0.075 µM, partner dose 5 µM)",71.3,67.1,74.5,90.1,92.5,61.9,77,82,89.3,82.5
"C[C@]1(O)C[C@@H](c2nc(-c3ccc4ccc(-c5ccccc5)nc4c3)c3c(N)nccn32)C1 + CS(=O)(=O)CCNCc1ccc(-c2ccc3ncnc(Nc4ccc(OCc5cccc(F)c5)c(Cl)c4)c3c2)o1 [lapatinib] (first compound 2 µM, partner dose 4 µM)",61.3,67.6,75.5,42.3,93.8,49.5,81.3,91.9,60.5,67.7
"CCN(CC)CCNC(=O)c1c(C)[nH]c(/C=C2\C(=O)Nc3ccc(F)cc32)c1C [sunitinib] + CC(=O)O[C@@]12CO[C@@H]1C[C@H](O)[C@@]1(C)C(=O)[C@H](O)C3=C(C)[C@@H](OC(=O)[C@H](O)[C@@H](NC(=O)OC(C)(C)C)c4ccccc4)C[C@@](O)([C@@H](OC(=O)c4ccccc4)[C@H]21)C3(C)C [Docetaxel] (first compound 2 µM, partner dose 0.0005 µM)",21.9,13,36.6,29.4,59.2,37.1,39.7,45.6,40.6,33.5
"CCN(CC)CCNC(=O)c1c(C)[nH]c(/C=C2\C(=O)Nc3ccc(F)cc32)c1C [sunitinib] + C=CCNC1=C2C[C@@H](C)C[C@H](OC)[C@H](O)[C@@H](C)/C=C(\C)[C@H](OC(N)=O)[C@@H](OC)/C=C\C=C(/C)C(=O)NC(=CC1=O)C2=O [Tanespimycin] (first compound 2 µM, partner dose 0.01 µM)",29.6,47.3,49.1,32.7,94.8,34.4,16.4,74.9,31.2,43.3
"C[C@]1(O)C[C@@H](c2nc(-c3ccc4ccc(-c5ccccc5)nc4c3)c3c(N)nccn32)C1 + CN(C)S(=O)(=O)c1ccc2c(c1)/C(=C/c1cc3c([nH]1)CCCC3)C(=O)N2 [SU6656] (first compound 2 µM, partner dose 2 µM)",43.6,70,63.6,62.1,72.2,59.1,52.6,53.9,35,53.3
"Cn1cnc2c(F)c(Nc3ccc(Br)cc3Cl)c(C(=O)NOCCO)cc21 [selumetinib] + CN(NC(=O)CC(=O)NN(C)C(=S)c1ccccc1)C(=S)c1ccccc1 [STA4783] (first compound 0.075 µM, partner dose 0.03 µM)",26,27,57.3,66.6,83.3,24.5,23.5,74.3,51.1,60.7
"Cn1cnc2c(F)c(Nc3ccc(Br)cc3Cl)c(C(=O)NOCCO)cc21 [selumetinib] + CO[C@@H]1[C@H](N(C)C(=O)c2ccccc2)C[C@H]2O[C@]1(C)n1c3ccccc3c3c4c(c5c6ccccc6n2c5c31)C(=O)NC4 [Midostaurin] (first compound 0.075 µM, partner dose 0.4 µM)",62,46.5,65.6,57,97.1,69.2,44.2,51.2,32.2,66.5
"CCN(CC)CCNC(=O)c1c(C)[nH]c(/C=C2\C(=O)Nc3ccc(F)cc32)c1C [sunitinib] + O=C(O)c1ccc2c(c1)nc(Nc1cccc(Cl)c1)c1ccncc12 [CX4945] (first compound 2 µM, partner dose 2 µM)",48.2,64.5,63.7,38.7,87.2,50.3,63.6,98.6,50.1,51.6
"C[C@]1(O)C[C@@H](c2nc(-c3ccc4ccc(-c5ccccc5)nc4c3)c3c(N)nccn32)C1 + OCc1c[nH]c2ccccc12 [Indole-3-carbinol] (first compound 2 µM, partner dose 4 µM)",84.3,83.1,102,58.7,87.6,88.5,84.7,81.1,66.2,86.8
"C[C@]1(O)C[C@@H](c2nc(-c3ccc4ccc(-c5ccccc5)nc4c3)c3c(N)nccn32)C1 + C=CCn1c(=O)c2cnc(Nc3ccc(N4CCN(C)CC4)cc3)nc2n1-c1cccc(C(C)(C)O)n1 [MK1775] (first compound 2 µM, partner dose 0.1 µM)",38.5,56.4,73.4,52,76.6,49.8,55,84.6,31.2,59.2
